# The other results are listed elsewhere or left out. Rule as the data show it: active = 3.2 or more and inactive = the rest. The signal is at background level for most entries.
# Tests used:
# Test in all cases: enrichment score (SH2-bound / input frequency) (ratio); bacterial display of known human phosphotyrosine sites (pTyr-Var adds point mutants) read by sequencing; higher = stronger binding; tyrosines were phosphorylated by kinases first
# Conditions in all cases: peptide library: pTyr-Var
# SHP2 C-SH2 domain E139D = biological target: SHP2 C-SH2 domain E139D
# [1] = biological target: SHP2 C-SH2 domain wild-type
# SHP2 N-SH2 domain L43F = biological target: SHP2 N-SH2 domain L43F
# SHP2 N-SH2 domain T42A = biological target: SHP2 N-SH2 domain T42A
# SHP2 N-SH2 domain T52S = biological target: SHP2 N-SH2 domain T52S
# [2] = biological target: SHP2 N-SH2 domain wild-type
# 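Also: displayed peptides selected on beads carrying the immobilized SH2 domain, with library peptides lacking any tyrosine serving as negative controls.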
Binder,enrichment score (SHP2 C-SH2 domain E139D),enrichment score [1],enrichment score (SHP2 N-SH2 domain L43F),enrichment score (SHP2 N-SH2 domain T42A),enrichment score (SHP2 N-SH2 domain T52S),enrichment score [2]
AVARPYHIQKW [ACSBG1_Y677_A673V],inactive: 1.72,inactive: 1.72,inactive: 1.46,inactive: 1.58,inactive: 1.66,inactive: 1.72
TLLERYGMTEI [ACSF3_Y355],inactive: 0.884,inactive: 0.935,inactive: 0.976,inactive: 0.942,inactive: 1.12,inactive: 0.988
TLLERYGMIEI [ACSF3_Y355_T358I],inactive: 1.42,inactive: 1.14,inactive: 1.08,inactive: 1.03,inactive: 1.02,inactive: 1.2
FKDGQYWIRGR [ACSF3_Y466],inactive: 0.231,inactive: 0.248,inactive: 0.288,inactive: 0.283,inactive: 0.224,inactive: 0.25
FTDGQYWIRGR [ACSF3_Y466_K462T],inactive: 0.244,inactive: 0.282,inactive: 0.37,inactive: 0.294,inactive: 0.194,inactive: 0.247
FKDGQYWIRGQ [ACSF3_Y466_R471Q],inactive: 0.828,inactive: 0.757,inactive: 0.686,inactive: 0.653,inactive: 0.799,inactive: 0.842
INASGYRVGPA [ACSM1_Y477_I479V],inactive: 0.832,inactive: 0.78,inactive: 0.688,inactive: 0.679,inactive: 0.668,inactive: 0.765
AVLSLYASGRT [ACTA1_Y145],inactive: 1.25,inactive: 1.19,inactive: 1.15,inactive: 1.06,inactive: 1.11,inactive: 1.25
AVLSLYASDRT [ACTA1_Y145_G148D],inactive: 1.19,inactive: 1.03,inactive: 1.13,inactive: 1.05,inactive: 1.08,inactive: 1.28
AVPSLYASGRT [ACTA1_Y145_L142P],inactive: 0.919,inactive: 0.826,inactive: 0.78,inactive: 0.637,inactive: 0.721,inactive: 0.939
AVLSLYASGRN [ACTA1_Y145_T150N],inactive: 1.15,inactive: 1.01,inactive: 0.998,inactive: 0.998,inactive: 1.11,inactive: 1.08
HNVPIYEGYAL [ACTA1_Y168],inactive: 0.852,inactive: 0.906,inactive: 0.878,inactive: 0.626,inactive: 0.858,inactive: 0.898
HNVPIYEGYGL [ACTA1_Y168_A172G],inactive: 0.97,inactive: 0.7,inactive: 0.862,inactive: 0.841,inactive: 0.953,inactive: 1.52
HNLPIYEGYAL [ACTA1_Y168_V165L],inactive: 0.885,inactive: 0.945,inactive: 0.972,inactive: 0.894,inactive: 0.881,inactive: 0.91
HNLPIYEGFAL [ACTA1_Y168_V165L_YF],inactive: 0.832,inactive: 0.861,inactive: 0.848,inactive: 0.705,inactive: 1.03,inactive: 1.02
PIYEGYGLPHA [ACTA1_Y171_A172G],inactive: 0.641,inactive: 0.785,inactive: 0.731,inactive: 0.624,inactive: 0.619,inactive: 0.842
LTDRGYSFVTT [ACTA1_Y200_E197D],inactive: 1.1,inactive: 2.7,inactive: 0.949,inactive: 1.97,inactive: 1.29,inactive: 0.794
KEKLCYVAPDF [ACTA1_Y220_L223P],inactive: 0.922,inactive: 1.01,active: 9.43,active: 8.69,active: 9.11,active: 4.54
IRKDLYANNVM [ACTA1_Y296],inactive: 0.951,inactive: 1.01,inactive: 0.968,inactive: 0.909,inactive: 0.806,inactive: 0.954

Binder,enrichment score (SHP2 C-SH2 domain E139D),enrichment score [1],enrichment score (SHP2 N-SH2 domain L43F),enrichment score (SHP2 N-SH2 domain T42A),enrichment score (SHP2 N-SH2 domain T52S),enrichment score [2]
ILTLKYPIEHG [ACTA1_Y71],inactive: 1.77,inactive: 1.32,inactive: 1.67,inactive: 1.44,inactive: 1.71,inactive: 1.55
ILTLKYPIKHG [ACTA1_Y71_E74K],inactive: 2.34,inactive: 1.94,inactive: 2.18,inactive: 2.17,inactive: 2.3,inactive: 2.22
WHHTFYNEPRV [ACTA1_Y93_L96P],inactive: 1.91,inactive: 1.35,inactive: 1.42,inactive: 1.31,inactive: 1.54,inactive: 1.59
AVLSLYASGCT [ACTA2_Y145_R149C],inactive: 0.798,inactive: 1,inactive: 0.88,inactive: 0.842,inactive: 0.868,inactive: 1.11
AVLSLCASGRT [ACTA2_Y145_Y145C],inactive: 0.842,inactive: 0.953,inactive: 0.779,inactive: 0.8,inactive: 0.745,inactive: 1.3
QDLTDYLMKIL [ACTA2_Y190_R185Q],inactive: 1.62,inactive: 1.16,inactive: 0.829,inactive: 1.25,inactive: 1.41,inactive: 1.12
LSERGYSFVTT [ACTA2_Y200_T196S],inactive: 1.18,inactive: 2.53,inactive: 0.891,inactive: 1.81,inactive: 0.943,inactive: 0.835
IRKDLYANNVL [ACTA2_Y296],inactive: 0.951,inactive: 1.04,inactive: 0.936,inactive: 0.813,inactive: 0.924,inactive: 1.04
IGKDLYANNVL [ACTA2_Y296_R292G],inactive: 0.827,inactive: 0.898,inactive: 0.794,inactive: 0.798,inactive: 0.791,inactive: 1.28
WDLTDYLMKIL [ACTB_Y188_R183W],active: 4.55,active: 3.77,active: 3.67,active: 4.15,active: 3.42,active: 3.99
LTERGYSFTTT [ACTB_Y198],inactive: 0.984,inactive: 0.957,inactive: 0.871,inactive: 0.702,inactive: 0.862,inactive: 1
LTEHGYSFTTT [ACTB_Y198_R196H],inactive: 1.16,inactive: 1.09,inactive: 1.13,inactive: 0.986,inactive: 0.787,inactive: 0.945
HNVAIYEGFAL [ACTC1_Y168_P166A_YF],inactive: 0.853,inactive: 0.74,inactive: 1.09,inactive: 0.89,inactive: 0.785,inactive: 0.789
HNVPICEGYAL [ACTC1_Y168_Y168C],inactive: 0.816,inactive: 1.19,inactive: 0.897,inactive: 0.755,inactive: 0.594,inactive: 0.755
AIYEGYALPHA [ACTC1_Y171_P166A],inactive: 0.742,inactive: 0.643,inactive: 0.791,inactive: 0.643,inactive: 0.705,inactive: 0.717
PICEGYALPHA [ACTC1_Y171_Y168C],inactive: 0.949,inactive: 0.741,inactive: 0.782,inactive: 0.737,inactive: 0.784,inactive: 0.796
IRKDLYSNNVL [ACTC1_Y296_A297S],inactive: 1.29,inactive: 0.809,inactive: 0.974,inactive: 0.756,inactive: 0.814,inactive: 0.805
ISKQEYDEAGP [ACTC1_Y364],inactive: 0.49,inactive: 0.643,inactive: 0.465,inactive: 0.425,inactive: 0.493,inactive: 0.538

# From the supplement of paper PMC10369915
